# Measurements reported in paper PMC10462243 (Research Square, 2023).
# By UniProt entry, the sequences of proteins in these tests, tags left out. Where a name states a change or a piece, a line headed by the entry shows the natural chain unless it says otherwise. Residues count along the entry.
# UniProt Q9Y4B6: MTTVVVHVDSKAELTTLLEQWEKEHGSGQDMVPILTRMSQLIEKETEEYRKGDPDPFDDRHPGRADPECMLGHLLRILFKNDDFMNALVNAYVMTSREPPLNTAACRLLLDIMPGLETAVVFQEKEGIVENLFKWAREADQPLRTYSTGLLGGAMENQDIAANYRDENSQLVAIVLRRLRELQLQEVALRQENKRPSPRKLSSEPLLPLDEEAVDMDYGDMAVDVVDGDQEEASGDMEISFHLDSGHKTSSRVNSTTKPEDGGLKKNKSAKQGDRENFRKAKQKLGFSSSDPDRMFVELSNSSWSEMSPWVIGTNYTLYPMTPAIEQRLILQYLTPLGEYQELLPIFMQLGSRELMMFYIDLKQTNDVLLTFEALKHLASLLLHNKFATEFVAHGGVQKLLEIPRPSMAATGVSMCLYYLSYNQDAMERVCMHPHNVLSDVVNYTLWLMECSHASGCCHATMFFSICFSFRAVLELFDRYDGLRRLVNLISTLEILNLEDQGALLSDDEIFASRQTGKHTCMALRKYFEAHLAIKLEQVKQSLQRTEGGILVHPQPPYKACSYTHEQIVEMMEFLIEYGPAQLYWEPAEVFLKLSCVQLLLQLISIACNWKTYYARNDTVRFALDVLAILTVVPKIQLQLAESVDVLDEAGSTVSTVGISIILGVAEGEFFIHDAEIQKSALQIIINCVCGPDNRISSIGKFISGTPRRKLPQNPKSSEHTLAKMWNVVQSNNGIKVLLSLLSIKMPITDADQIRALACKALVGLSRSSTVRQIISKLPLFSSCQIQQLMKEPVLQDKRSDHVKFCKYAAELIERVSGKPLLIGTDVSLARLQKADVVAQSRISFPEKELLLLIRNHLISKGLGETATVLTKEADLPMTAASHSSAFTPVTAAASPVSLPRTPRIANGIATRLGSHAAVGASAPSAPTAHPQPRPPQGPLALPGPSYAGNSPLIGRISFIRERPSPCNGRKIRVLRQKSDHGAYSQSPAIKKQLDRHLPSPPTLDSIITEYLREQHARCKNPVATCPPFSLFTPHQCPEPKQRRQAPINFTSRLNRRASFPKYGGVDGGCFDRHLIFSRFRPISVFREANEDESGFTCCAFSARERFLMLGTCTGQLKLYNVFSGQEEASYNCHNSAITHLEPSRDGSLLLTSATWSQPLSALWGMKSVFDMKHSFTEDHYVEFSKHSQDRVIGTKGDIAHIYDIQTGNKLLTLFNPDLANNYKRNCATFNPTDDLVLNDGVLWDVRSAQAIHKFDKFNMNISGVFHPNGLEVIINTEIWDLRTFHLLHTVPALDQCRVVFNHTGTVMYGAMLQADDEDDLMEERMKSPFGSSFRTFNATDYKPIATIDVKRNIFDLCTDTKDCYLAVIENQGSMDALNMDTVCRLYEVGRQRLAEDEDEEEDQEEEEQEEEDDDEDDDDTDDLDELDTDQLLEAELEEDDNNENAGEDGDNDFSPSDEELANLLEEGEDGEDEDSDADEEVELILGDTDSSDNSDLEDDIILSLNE
# VprBP WD40-AR(1057–1507): residues 1057-1507 of Q9Y4B6
# VprBP AR (residues 1401–1507): residues 1401-1507 of Q9Y4B6
# VprBP(1401–1450): residues 1401-1450 of Q9Y4B6
# VprBP(1446–1507) (co-IP construct): residues 1446-1507 of Q9Y4B6
# UniProt P12520: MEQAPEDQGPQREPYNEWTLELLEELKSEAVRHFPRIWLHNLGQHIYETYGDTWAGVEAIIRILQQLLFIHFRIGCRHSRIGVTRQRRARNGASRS
# Vpr(51–96) fragment (HIV-1 (pNL4–3)): residues 51-96 of P12520
# Vpr(75–96) fragment (HIV-1 (pNL4–3)): residues 75-96 of P12520
# UniProt Q16531: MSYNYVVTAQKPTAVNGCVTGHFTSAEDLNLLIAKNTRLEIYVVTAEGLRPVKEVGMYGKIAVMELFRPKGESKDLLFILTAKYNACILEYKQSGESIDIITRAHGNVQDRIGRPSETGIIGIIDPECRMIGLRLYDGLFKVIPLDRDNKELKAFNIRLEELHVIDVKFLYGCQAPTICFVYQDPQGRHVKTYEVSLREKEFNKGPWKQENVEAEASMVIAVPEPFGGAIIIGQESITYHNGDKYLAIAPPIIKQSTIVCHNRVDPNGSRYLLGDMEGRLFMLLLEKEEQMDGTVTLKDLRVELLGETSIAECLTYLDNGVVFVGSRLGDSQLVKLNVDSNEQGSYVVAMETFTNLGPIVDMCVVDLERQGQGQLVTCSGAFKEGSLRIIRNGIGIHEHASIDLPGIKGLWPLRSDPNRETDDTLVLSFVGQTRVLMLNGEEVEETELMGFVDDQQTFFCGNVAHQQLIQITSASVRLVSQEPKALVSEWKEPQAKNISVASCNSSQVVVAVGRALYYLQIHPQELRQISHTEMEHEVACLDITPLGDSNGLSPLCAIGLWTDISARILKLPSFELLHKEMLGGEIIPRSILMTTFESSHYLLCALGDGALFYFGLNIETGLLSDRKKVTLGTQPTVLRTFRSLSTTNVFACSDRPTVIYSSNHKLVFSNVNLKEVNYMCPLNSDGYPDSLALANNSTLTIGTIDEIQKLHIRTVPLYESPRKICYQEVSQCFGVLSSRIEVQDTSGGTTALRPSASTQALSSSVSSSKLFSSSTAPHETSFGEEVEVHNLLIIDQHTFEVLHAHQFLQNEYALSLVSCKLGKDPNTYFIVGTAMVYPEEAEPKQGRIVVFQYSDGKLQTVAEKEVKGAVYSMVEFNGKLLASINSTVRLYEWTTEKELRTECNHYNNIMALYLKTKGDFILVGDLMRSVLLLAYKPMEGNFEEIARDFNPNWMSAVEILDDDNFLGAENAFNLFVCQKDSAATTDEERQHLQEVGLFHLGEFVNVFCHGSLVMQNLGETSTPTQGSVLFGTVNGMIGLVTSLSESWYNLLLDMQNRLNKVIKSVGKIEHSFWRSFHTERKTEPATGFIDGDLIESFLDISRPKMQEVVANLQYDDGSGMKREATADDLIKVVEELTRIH
# Results are given in words; binding and its absence hold for the method and conditions named. For some of these results: Binding seen in cells or lysates may run through a third protein. Some entries that bind do so weakly or less than the wild type. For some of these results: Sequences can lack the tags named with a protein.
# B1: Plk4 CPB(581–808) (co-expressed with His-MBP-VprBP(1446–1507)) (domain or fragment, UniProt O00444 581-808)
# chain: GYQNRTLRSITSPLVAHRLKPIRQKTKKAVVSILDSEEVCVELVKEYASQEYVKEVLQISSDGNTITIYYPNGGRGFPLADRPPSPTDNISRYSFDNLPEKYWRKYQYASRFVQLVRSKSPKITYFTRYAKCILMENSPGADFEVWFYDGVKIHKTEDFIQVIEKTGKSYTLKSESEVNSLKEEIKMYMDHANEGHRICLALESIISEEERKTRSAPFFPIIIGRKPG
# B2: Plk4 CPB(581–808), purified (domain or fragment, UniProt O00444 581-808, looked up)
# chain: B1 chain
# notes: Plk4 cryptic polo-box, residues 581–808; Two copies for each Vpr•VprBP in the SEC complex; The construct has a TEV site
# B3: full-length Plk4 (transfected) (protein, UniProt O00444 1-970)
# chain: MATCIGEKIEDFKVGNLLGKGSFAGVYRAESIHTGLEVAIKMIDKKAMYKAGMVQRVQNEVKIHCQLKHPSILELYNYFEDSNYVYLVLEMCHNGEMNRYLKNRVKPFSENEARHFMHQIITGMLYLHSHGILHRDLTLSNLLLTRNMNIKIADFGLATQLKMPHEKHYTLCGTPNYISPEIATRSAHGLESDVWSLGCMFYTLLIGRPPFDTDTVKNTLNKVVLADYEMPSFLSIEAKDLIHQLLRRNPADRLSLSSVLDHPFMSRNSSTKSKDLGTVEDSIDSGHATISTAITASSSTSISGSLFDKRRLLIGQPLPNKMTVFPKNKSSTDFSSSGDGNSFYTQWGNQETSNSGRGRVIQDAEERPHSRYLRRAYSSDRSGTSNSQSQAKTYTMERCHSAEMLSVSKRSGGGENEERYSPTDNNANIFNFFKEKTSSSSGSFERPDNNQALSNHLCPGKTPFPFADPTPQTETVQQWFGNLQINAHLRKTTEYDSISPNRDFQGHPDLQKDTSKNAWTDTKVKKNSDASDNAHSVKQQNTMKYMTALHSKPEIIQQECVFGSDPLSEQSKTRGMEPPWGYQNRTLRSITSPLVAHRLKPIRQKTKKAVVSILDSEEVCVELVKEYASQEYVKEVLQISSDGNTITIYYPNGGRGFPLADRPPSPTDNISRYSFDNLPEKYWRKYQYASRFVQLVRSKSPKITYFTRYAKCILMENSPGADFEVWFYDGVKIHKTEDFIQVIEKTGKSYTLKSESEVNSLKEEIKMYMDHANEGHRICLALESIISEEERKTRSAPFFPIIIGRKPGSTSSPKALSPPPSVDSNYPTRERASFNRMVMHSAASPTQAPILNPSMVTNEGLGLTTTASGTDISSNSLKDCLPKSAQLLKSVFVKNVGWATQLTSGAVWVQFNDGSQLVVQAGVSSISYTSPNGQTTRYGENEKLPDYIKQKLQCLSSILLMFSNPTPNFH
# What was measured:
# [1] = molecular target: T1, full-length Plk4 (transfected) (UniProt O00444); assay: co-IP; HEK293T cells transfected with the indicated constructs; TBSN buffer (20 mM Tris-HCl pH 8.0, 120 mM NaCl, 0.5% Nonidet P-40, 5 mM EGTA, 1.5 mM EDTA, 2 mM DTT); immunoblot; thymidine- or nocodazole-treated cells in Supplementary Fig. 2b; with or without co-expressed Vpr or VprBP in Fig. 3b-d and Supplementary Fig. 3a-d
# T1 sequence: B3 chain
# [2] = molecular target: Plk4 CTD (co-IP construct) (UniProt O00444); assay: as above
# [3] = molecular target: Plk4 CPB (co-IP construct) (UniProt O00444); assay: as above
# [4] = molecular target: His-MBP-fused VprBP(1446–1507) (UniProt Q9Y4B6); assay: SEC; SEC profile and Coomassie-stained SDS-PAGE of MBP-VprBP(1446–1507) and CPB(581–808); both purified
# VprBP WD40-AR(1057–1507) = VprBP WD40-AR(1057–1507) (UniProt Q9Y4B6); assay: SEC; purified Vpr, VprBP(1057–1507), Plk4 CPB(581–808) and DDB1; HisTrap eluate of VprBP and Vpr digested with TEV, mixed with Plk4 CPB; SEC in 20 mM Tris-HCl pH 7.5, 100 mM NaCl, 10% glycerol; stoichiometry estimated from Coomassie-stained protein intensity; both purified
# [5] = molecular target: VprBP AR (residues 1401–1507) (UniProt Q9Y4B6); assay: co-IP; HEK293T cells transfected with the indicated constructs; TBSN buffer (20 mM Tris-HCl pH 8.0, 120 mM NaCl, 0.5% Nonidet P-40, 5 mM EGTA, 1.5 mM EDTA, 2 mM DTT); immunoblot; thymidine- or nocodazole-treated cells in Supplementary Fig. 2b; with or without co-expressed Vpr or VprBP in Fig. 3b-d and Supplementary Fig. 3a-d
# VprBP(1401–1450) = VprBP(1401–1450) (UniProt Q9Y4B6); assay: as above
# [6] = molecular target: Vpr(51–96) fragment (HIV-1 (pNL4–3)) (UniProt P12520); assay: as above
# [7] = molecular target: VprBP(1446–1507) (co-IP construct) (UniProt Q9Y4B6); assay: as above
# [8] = molecular target: mGFP-STREP-TEV-fused Vpr (HIV-1 (pNL4–3)) (UniProt P12520); assay: as above
# [9] = molecular target: Vpr(75–96) fragment (HIV-1 (pNL4–3)) (UniProt P12520); assay: as above
# [10] = molecular target: HIV-1 Vpr (pNL4–3), transfected (HIV-1 (pNL4–3)) (UniProt P12520); assay: as above
molecule,measurement,setting,value
DDB1 (co-IP with full-length Plk4) (from UniProt Q16531 1-1140),binding,[1],binds
full-length VprBP (transfected) (from UniProt Q9Y4B6 1-1507),binding,[1],binds
same,binding,[2],binds
same,binding,[3],binds
B1,binding,[4],binds
B2,binding,VprBP WD40-AR(1057–1507),binds
B3,binding,[5],binds
same,binding,VprBP(1401–1450),no binding
same,binding,[6],binds weakly
same,binding,[7],binds
same,binding,[8],binds
same,binding,[9],binds weakly
same,binding,[10],binds
